Measurements as given in PubChem BioAssay AID624296 (National Center for Advancing Translational Sciences (NCATS), 2012).
Among all 350,000 compounds or so, about 9,900 (2.8%) were called active. Inconclusive results, whose numbers are uncertain, are shown with a selection of clear calls. Calls follow the shape of the dose curve; as a rule, active = well fitted activation curve with a large enough effect; inconclusive = small, poorly fitted or top-dose-only effect; inactive = no such curve, though single readings can be large or run the other way. Potencies of inconclusive entries are left out as doubtful fits.

test: A quantitative high throughput screen for small molecules that induce DNA re-replication in MCF 10a normal breast cells.; also: nearly all actives have a fitted effect of over 50% in size; as to activity, positive = re-replication: % of control where 0% means no effect; conditions: MCF 10A DNA re-replication, Hoechst nuclear intensity, 48 h; activity, positive = re-replication: at 46.1 µM (top of the series)
Potency is read from the fitted curve at half-maximal effect; tags tell the direction and shape of the fitted curve.

SMILES | Potency | activity, positive = re-replication
Cn1c(=O)[nH]c(=O)c2c1nc(OC(=O)c1ccccc1)n2CC(O)COc1ccc(F)cc1 (stereo not given) | inconclusive [activator, single point] | –
COc1ccc(C(Cl)=C(c2ccc(OC)cc2)c2ccc(OC)cc2)cc1 | inconclusive [activator, full curve, poor fit] | –
CC1CCc2cc(F)ccc2N1C(=O)CSc1nnc2c(n1)[nH]c1ccc(F)cc12 (stereo not given) | – | inactive: 17%
COc1ccc(NC(=O)c2ccc(NC(=O)c3cccs3)cc2)cc1 | – | inactive: 10%
O=C(Nc1nc(-c2ccc(Cl)s2)cs1)c1ccco1 | inconclusive [activator, single point] | –
N#Cc1c(NC(=O)C2CC(c3ccccc3O)=NO2)sc2c1CCC2 (stereo not given) | inconclusive [activator, single point] | –
COC(=O)c1ccc(COc2ccccc2/C=N/NC(=O)c2cccnc2)cc1 | inconclusive [activator, single point] | –
O=C(NCCCCc1ccccc1)C1CC(c2cc(C(F)(F)F)cc(C(F)(F)F)c2)=NO1 (stereo not given) | inconclusive [activator, single point] | –
COCC(C)NC(=O)c1ccccc1OC(C)=O (stereo not given) | – | inactive: 10.3%
O=C(NCc1cccnc1)C1CC(c2ccc(Cl)c(Cl)c2)=NO1 (stereo not given) | active: 9.2 µM | –
COc1ccc2c(-c3ccccc3)cc(SCC(=O)N(C)C3CCS(=O)(=O)C3)nc2c1 (stereo not given) | inconclusive [activator, partial curve, poor fit] | –
CCN(C(=O)/C=C/c1ccc(OC)cc1)C1CCCCC1 | – | inactive: 19.6%
COCC(=O)N(Cc1nc2ccccc2c(=O)[nH]1)Cc1cccs1 | – | inactive: 15.7%
Fc1cccc2sc(Nc3nc4ccccc4s3)nc12 | inconclusive [activator, single point] | –
CCOC(=O)c1c(N)sc2c1CCN(Cc1ccccc1)C2 | inconclusive [activator, partial curve] | –
COc1ccc(CCNC(=O)CNC(=O)Cn2ccc3ccccc3c2=O)cc1OC | – | inactive: -4.2%
O=C1CCCc2cc3c(ccc4ccccc43)cc21 | active: 18.4 µM | –
O=C(CSc1nnc(-c2ccccn2)o1)Nc1ccccc1Cl | – | inactive: 0.622%
CCCn1c(=N)c(S(=O)(=O)c2ccccc2)cc2c(=O)n3cccc(C)c3nc21 | inconclusive [activator, partial curve] | –
CN(C(=O)CCCN1C(=O)c2cccc3cccc(c23)C1=O)c1ccccc1 | inconclusive [activator, partial curve, poor fit] | –
CCc1[nH]nc2c1C(C1C=CCCC1)C(C#N)=C(N)O2 (stereo not given) | inconclusive [activator, partial curve, poor fit] | –
Cc1nnc(SC(C)C(=O)Nc2ccc3c(c2)OCCO3)s1 (stereo not given) | inconclusive [activator, single point] | –
CC1=C(C(=O)OCC2CCCO2)C(c2ccc(Cl)c(Cl)c2)NC(=O)N1 (stereo not given) | – | inactive: 4.67%

SMILES | Potency | activity, positive = re-replication
COc1cc(OC)c(OC)cc1CN1CCN(S(=O)(=O)c2ccc(F)cc2)CC1 | inconclusive [activator, single point] | –
CCOc1ccc(NS(=O)(=O)c2cc(NC(=O)C3CC3)ccc2C)cc1Br | inconclusive [activator, single point] | –
Cc1cc(O)ccc1Nc1nc(-c2cccs2)cs1 | – | inactive: 15.8%
O=C(C[C@@H]1C/C=C\CC[C@H](Cc2ccc(F)cc2)C(=O)OC[C@@H]2CCCN2C1=O)N[C@H](CO)Cc1ccccc1 | inconclusive [activator, single point] | –
CCOC(=O)N1C2=NC(C(=O)OC)=C(C(=O)OC)[C@@H]3N(C)c4ccccc4[C@]23C[C@H]1C(=O)OC | inconclusive [activator, partial curve, poor fit] | –
COc1cc2c(c(O)c1OC)C(=O)C(OC)CCC2 (stereo not given) | – | inactive: -2.82%
Cc1nc(CS(=O)c2ccc(Cl)cc2)cc(NCc2ccc(Cl)cc2Cl)n1 (stereo not given) | inconclusive [activator, single point] | –
COc1ccccc1Nc1nc2c(C)cccc2cc1C#N | inconclusive [activator, partial curve] | –
Cc1cc(C)nc(N2CCCC(C(=O)Nc3nnc(C(C)(C)C)s3)C2)n1 (stereo not given) | – | inactive: -1.18%
COc1ccc2[nH]c(C)c(CCNC(=S)Nc3ccccc3OC)c2c1 | inconclusive [activator, partial curve, poor fit] | –
CCOc1ccc2nc(NCCCNS(=O)(=O)c3ccc(F)cc3)c(C#N)cc2c1 | active: 2.06 µM | –
Clc1cccc(NCc2nnc(SCc3ccc(Cl)cc3Cl)o2)c1 | inconclusive [activator, single point] | –
O=Nc1c(O)n(Cc2ccccc2)c2ccccc12 | – | inactive: 1.36%
O=C(NCC1CCCCC1)C1(CC2CC(c3ccc(Cl)cc3)=NO2)CCNCC1 (stereo not given) | inconclusive [activator, single point] | –
CSc1nc(N2CCN(c3ccccc3Cl)CC2)c2ccccc2n1 | inconclusive [activator, full curve] | –
COc1ccc([C@@H]2C[C@H](c3ccccc3)Oc3cc(C)cc(C)c32)cc1 | inconclusive [activator, partial curve] | –
COc1ccc(NC(=O)CN2CCCCCC2)cc1OC | – | inactive: 2.5%
O=C1NC(=S)NC1=Cc1ccc(Cl)cc1Cl | inconclusive [activator, single point] | –
O=[N+]([O-])c1ccc(C[n+]2cccc3ccc4cccnc4c32)cc1 | inconclusive [activator, partial curve, poor fit] | –
CS(=O)(=O)N(CC(=O)NCCSCc1ccccc1)c1ccc2c(c1)OCO2 | inconclusive [activator, partial curve, poor fit] | –
COc1ccc(C(=O)NCCS(=O)(=O)N2CCN(C(=O)c3ccco3)CC2)cc1 | – | inactive: 1.26%
COc1ccc2c3n([n+]([O-])c2c1)CCN=C3c1ccc(Cl)cc1 | – | inactive: -1.41%
